From the RNAGym collection of RNA variant scans (doi:10.1093/nar/gkz1192)
Read counts are not given, so values of variants with three or more changes are uncertain.

B1: CPEB3 Ribozyme (parent)
chain: UAACAGGGGGCCACAGCAGAAGCGUUCACGUCGCAGCCCCUGUCAGAUUCUGGUGAAUCUGCGAAUUCUGCUGUAUAUCUC

Variants of: B1
Assay: self-cleavage, relative activity (ratio to wild type); higher = more cleavage; in vitro, sequencing
Summary of the method: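 CPEB3 self-cleaving ribozyme mutant libraries were made by rounds of error-prone PCR, barcoded, and transcribed in vitro with T7 RNA polymerase for 5 hours at 37°C. Cleavage occurred during transcription and a 15 min DNase I step before EDTA stop. RNAs were reverse transcribed with template switching and Illumina-sequenced, with DNA sequencing mapping barcodes to variants. Relative activity is the variant's cleaved/total read fraction divided by wild type's (minimum 5 reads), averaged across three batches.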
With U43A A47G A56G U78A the self-cleavage was 0.49.
Variant U43A A47G A56G U80C has a self-cleavage of 0.47.
Work on U43A A47G A65G U67C U72C yielded a self-cleavage of 0.32.
Variant U43A A47G U51A A64U has a self-cleavage of 0.13.
Work on U43A A47G U51A A75U yielded a self-cleavage of 0.69.
U43A A47G U66C showed a self-cleavage of 0.57.
Work on U43A A47U U72C yielded a self-cleavage of 0.69.
Work on U43A A56G A57G U72A yielded a self-cleavage of 0.36.
Work on U43A A56G A64C yielded a self-cleavage of 0.37.
U43A A56G U69C U80C gave a self-cleavage of 0.34.
U43A A56G U78C showed a self-cleavage of 0.86.
Variant U43A A56U C71A has a self-cleavage of 0.51.
Variant U43A A57G G63U A64U U72C has a self-cleavage of 0.32.
U43A A57G U58A C68U U72C showed a self-cleavage of 0.21.
U43A A57U U80C showed a self-cleavage of 0.71.
U43A A64G U76A U80C showed a self-cleavage of 1.03.
With U43A A64G U78G the self-cleavage was 1.11.
U43A A64U U67A showed a self-cleavage of 0.25.
Work on U43A A64U U78G yielded a self-cleavage of 0.51.
Variant U43A C44G U67C has a self-cleavage of 0.24.
Work on U43A C44U G52A U69A yielded a self-cleavage of 0.36.
Variant U43A C50U A56U has a self-cleavage of 0.97.
U43A C59U A64U U72C A75G showed a self-cleavage of 0.32.
U43A C62A U76A showed a self-cleavage of 1.07.
U43A G52U U60A showed a self-cleavage of 0.8.
Variant U43A G53A U66C has a self-cleavage of 0.17.
U43A G61A U78A showed a self-cleavage of 0.67.
Variant U43A G70A U80C has a self-cleavage of 0.49.
For U43A U48A U72C, the self-cleavage was 0.6.
With U43A U48C A64G the self-cleavage was 0.52.
Variant U43A U48C U54C U66A has a self-cleavage of 0.18.
Variant U43A U48C U67C has a self-cleavage of 0.3.
Variant U43A U49A G52U A56U C62U has a self-cleavage of 0.09.
Work on U43A U49C U51C A65G U69A yielded a self-cleavage of 0.29.
In the case of U43A U51A A65G, the self-cleavage is reported as 0.47.
Variant U43A U51A A65U has a self-cleavage of 0.12.
U43A U51C A56G U67C U74C showed a self-cleavage of 0.45.
U43A U54A A64G U67A gave a self-cleavage of 0.43.
Variant U43A U54A A64U has a self-cleavage of 0.57.
With U43A U54A A65G the self-cleavage was 0.74.
In the case of U43A U54A C68G, the self-cleavage is reported as 0.79.
U43A U54C A77U showed a self-cleavage of 1.42.
In the case of U43A U54C U67G U74C C81G, the self-cleavage is reported as 0.58.
With U43A U54C U80C the self-cleavage was 1.19.
U43A U58C A64U showed a self-cleavage of 0.49.
U43A U60A A65G showed a self-cleavage of 0.53.
U43A U60A U66C gave a self-cleavage of 0.91.
U43A U60A U72C gave a self-cleavage of 1.1.
Variant U43A U60A U80C has a self-cleavage of 0.27.
With U43A U60C A64U the self-cleavage was 0.42.
Variant U43A U60C U66A U80C has a self-cleavage of 0.25.
With U43A U60C U72A U78C the self-cleavage was 0.57.
Work on U43A U67C U74C yielded a self-cleavage of 0.45.
With U43A U72C U74C U80C the self-cleavage was 1.26.
For U43A U72C U76A U80C, the self-cleavage was 1.29.
In the case of U43A U72C U80C, the self-cleavage is reported as 1.19.
U43A U74C A75G showed a self-cleavage of 1.2.
Work on U43C A45C A56G U60C U69C yielded a self-cleavage of 0.26.
U43C A45C U74C gave a self-cleavage of 0.5.
Work on U43C A45C U80G yielded a self-cleavage of 0.06.
Work on U43C A45G A57G yielded a self-cleavage of 0.33.
For U43C A45G A64U U67C, the self-cleavage was 0.14.
U43C A45G A65G showed a self-cleavage of 0.15.
U43C A45G A77C showed a self-cleavage of 0.2.
U43C A45G A77G gave a self-cleavage of 0.46.
Work on U43C A45G U48C A57G yielded a self-cleavage of 0.68.
Work on U43C A45G U48C G53U U60A U69C G73A yielded a self-cleavage of 0.15.
U43C A45G U54C showed a self-cleavage of 0.21.
With U43C A45G U58C U67C the self-cleavage was 0.16.
With U43C A45G U66A U67C the self-cleavage was 0.23.
Variant U43C A45G U74C has a self-cleavage of 0.8.
In the case of U43C A45G U78A, the self-cleavage is reported as 0.39.
In the case of U43C A45G U80G, the self-cleavage is reported as 0.63.
U43C A45U A47C A57G U66C U78A showed a self-cleavage of 0.06.
Variant U43C A45U A47C C50A has a self-cleavage of 0.1.
With U43C A45U A47G C50A U67A the self-cleavage was 0.15.
For U43C A45U A57G U60C U78C, the self-cleavage was 0.04.
In the case of U43C A45U G55A, the self-cleavage is reported as 0.24.
In the case of U43C A45U U51C, the self-cleavage is reported as 0.18.
Work on U43C A45U U60A yielded a self-cleavage of 0.9.
U43C A45U U60A A64G U69A U72A showed a self-cleavage of 0.07.
In the case of U43C A45U U60A A77U U80C, the self-cleavage is reported as 0.97.
For U43C A45U U69G, the self-cleavage was 0.08.
U43C A47G A56U showed a self-cleavage of 0.08.
U43C A47G A64C showed a self-cleavage of 0.21.
U43C A47G A65U showed a self-cleavage of 0.18.
In the case of U43C A47G C71A, the self-cleavage is reported as 0.27.
Work on U43C A47G G63U A64G yielded a self-cleavage of 0.61.
U43C A47G U48C gave a self-cleavage of 0.16.
Variant U43C A47G U49C has a self-cleavage of 0.08.
For U43C A47G U54A A56U, the self-cleavage was 0.38.
With U43C A47G U54G U67C U78G the self-cleavage was 0.31.
Variant U43C A47G U60A C62U A64C has a self-cleavage of 0.16.
In the case of U43C A47G U69A U76G, the self-cleavage is reported as 0.17.
U43C A47G U69C U76A U80C showed a self-cleavage of 0.16.
For U43C A47U A56G, the self-cleavage was 0.16.
U43C A56C U80C showed a self-cleavage of 0.28.
U43C A56G A57U gave a self-cleavage of 0.07.
U43C A56G U60C U69C showed a self-cleavage of 0.08.
Work on U43C A56G U67C U72C yielded a self-cleavage of 0.16.
With U43C A56G U78A the self-cleavage was 0.25.
U43C A56U U60C U78G showed a self-cleavage of 0.06.
Work on U43C A56U U69A yielded a self-cleavage of 0.17.
U43C A57G U72A showed a self-cleavage of 0.26.
With U43C A57G U72C A77G U78C the self-cleavage was 0.24.
With U43C A64G A77G U78C the self-cleavage was 0.14.
With U43C A64G U67C the self-cleavage was 0.12.
In the case of U43C A64G U72C, the self-cleavage is reported as 0.5.
In the case of U43C A64G U72C U76A, the self-cleavage is reported as 0.67.
U43C A64G U72C U78G showed a self-cleavage of 0.64.
Work on U43C A64U U80G yielded a self-cleavage of 0.16.
With U43C A65U U69A the self-cleavage was 0.16.
Variant U43C A75U U80C has a self-cleavage of 0.79.
In the case of U43C C50A U58A U67A, the self-cleavage is reported as 0.13.
U43C C50G U58C gave a self-cleavage of 0.11.
Work on U43C C62U U72A U80C yielded a self-cleavage of 0.09.
With U43C G46A A77G the self-cleavage was 0.2.
With U43C G52A U74A the self-cleavage was 1.16.
For U43C G52C U58C U69C, the self-cleavage was 0.17.
In the case of U43C G53A C62U A65G, the self-cleavage is reported as 0.22.
U43C G55U A56U A64U U74C gave a self-cleavage of 0.1.
U43C G73U U76A gave a self-cleavage of 0.68.
In the case of U43C U48A U66A, the self-cleavage is reported as 0.35.
U43C U48C A57G U76A A77C gave a self-cleavage of 0.74.
With U43C U48C A64G U67C U76C C79G the self-cleavage was 0.07.
U43C U48C A75C showed a self-cleavage of 0.15.
Variant U43C U48C G53A U60A U69C has a self-cleavage of 0.14.
For U43C U48C U51A, the self-cleavage was 0.19.
U43C U48C U54C A77U C79U showed a self-cleavage of 0.2.
Variant U43C U48C U74C U76C has a self-cleavage of 0.52.
U43C U49A A56G A64U gave a self-cleavage of 0.1.
U43C U49A U54C showed a self-cleavage of 0.21.
With U43C U49A U76C U78C the self-cleavage was 0.1.
U43C U49C C59U gave a self-cleavage of 0.1.
For U43C U49C U51A G70C, the self-cleavage was 0.13.
Work on U43C U49C U51A U69A yielded a self-cleavage of 0.23.
In the case of U43C U49C U51C A56U, the self-cleavage is reported as 0.15.
Variant U43C U49C U67C U78A has a self-cleavage of 0.04.
Work on U43C U49G A64U yielded a self-cleavage of 0.19.
U43C U51A A56G U60A U80C showed a self-cleavage of 0.11.
In the case of U43C U51A A64G, the self-cleavage is reported as 0.4.
With U43C U51A U54C the self-cleavage was 0.27.
With U43C U51A U60A the self-cleavage was 0.32.
U43C U51A U78C gave a self-cleavage of 0.63.
In the case of U43C U51C A56G U60C, the self-cleavage is reported as 0.12.
U43C U51C G52C U60C A64U A75G showed a self-cleavage of 0.18.
Variant U43C U51C U60C has a self-cleavage of 0.25.
U43C U51C U67A U72C showed a self-cleavage of 0.32.
With U43C U54C A65G U67C the self-cleavage was 0.08.
U43C U54C A77U gave a self-cleavage of 0.21.
U43C U54C C62U showed a self-cleavage of 0.08.
Variant U43C U54C U66A has a self-cleavage of 0.2.
In the case of U43C U54C U66C U67C, the self-cleavage is reported as 0.13.
U43C U54C U72C U80C gave a self-cleavage of 0.63.
With U43C U54C U78C U80C the self-cleavage was 0.31.
With U43C U58A U69C the self-cleavage was 0.13.
For U43C U58C G63A, the self-cleavage was 0.11.
U43C U58C U74A showed a self-cleavage of 0.16.
U43C U60A A75U showed a self-cleavage of 0.18.
U43C U60A U69C U78C gave a self-cleavage of 0.09.
Variant U43C U60A U80C has a self-cleavage of 0.15.
U43C U60C C62G U66C gave a self-cleavage of 0.23.
For U43C U60C U66C U69A U76C, the self-cleavage was 0.1.
U43C U60C U69A U80C gave a self-cleavage of 0.15.
With U43C U60C U76C the self-cleavage was 0.46.
For U43C U66A U72A, the self-cleavage was 0.09.
With U43C U66C A77C the self-cleavage was 0.13.
